# Measurements published in PubChem BioAssay AID686979 (National Center for Advancing Translational Sciences (NCATS), 2013).
# The campaign covered roughly 420,000 compounds. About 50,000 (12%) were called active. This list was built around the results that the source calls inconclusive (neither active nor inactive); the mix of calls is not that of the screen. The call rests on the fitted dose curve; in most records, active means well fitted inhibition curve with a large enough effect; inconclusive means small, poorly fitted or top-dose-only effect; inactive means flat fitted curve, though single readings scatter. Potencies of inconclusive entries are left out as doubtful fits.
# Experiment: qHTS for Inhibitors of human tyrosyl-DNA phosphodiesterase 1 (TDP1): qHTS in cells in presence of CPT; further: nearly all actives have a fitted effect of over 55% in size
# Conditions: chicken DT40 Tdp1-/-;hTDP1 cells + 20 nM CPT, ATP luminescence, 48 h; activity change, negative = growth inhibition: at 46.2 µM (top of the series) unless noted
# How it was run: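 Chicken DT40 Tdp1-/- cells complemented with human TDP1, 400 cells/well, exposed to compounds plus 20 nM camptothecin for at least 48 h at 37 C; viability read as ATP content by CellTiter-Glo luminescence.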
# On the % scale 0 is the no-effect control and ±100 the full control effect; potency means the concentration at half of the fitted maximal effect; tags describe the fitted curve by direction and shape.
Structure (SMILES),Potency,"activity change, negative = growth inhibition"
O=C(Cc1c(Cl)cccc1Cl)OCC(=O)c1ccc[nH]1,"inconclusive [inhibitor, single point]",
CC(=O)Nc1ccc2ccccc2c1,,inactive: 2.12%
CCCCN1C(=O)c2[nH]nc(-c3ccccc3O)c2C1c1ccc(C(C)(C)C)cc1 (stereo unspecified),active: 20.6 µM,
O=C(NC1C2CC3CC(C2)CC1C3)c1ccc(Br)o1 (stereo unspecified),,inactive: 4.71%
CCCOc1ccc(/C=N/Nc2ccccc2[N+](=O)[O-])c(O)c1,active: 10.3 µM,
CCCCCCCN1CCN=C1N(C)C,"inconclusive [inhibitor, partial curve]",
COc1cc2c(cc1OC)CN(CCOc1ccc(Br)cc1)CC2,"inconclusive [inhibitor, single point]",
CN(C(=O)CSc1nncn1-c1ccccc1)c1ccccc1,,inactive: 0.115%
CCC1Oc2ccc(C)cc2N(CC(=O)NCc2ccc(OC)cc2)C1=O (stereo unspecified),,inactive: -27.3%
COc1ccc(CCNC(=O)CCCc2ccccc2)cc1OC,,inactive: 23.2%
CCN1CCN(C(=S)Nc2ccc3nc(N4CCN(C)CC4)cc(C)c3c2)CC1,"inconclusive [inhibitor, single point]",
CC1CCN(c2ccccc2NC(=O)c2ccc([N+](=O)[O-])o2)CC1,"inconclusive [inhibitor, single point]",
CCn1cc(C(=O)NCc2ccccc2OC)c(=O)c2cc(S(=O)(=O)N(C)C)ccc21,"inconclusive [inhibitor, single point]",
CCOCC(=O)Nc1c(C(=O)Nc2ccc(OC)cc2OC)oc2ccccc12,"inconclusive [inhibitor, partial curve]",
O=c1oc2ccccc2cc1-c1nnc(Nc2ccc(Cl)cc2Cl)s1,"inconclusive [inhibitor, single point]",
COc1cc(CNc2nc3c(C)cc(C)cc3s2)ccc1O,"inconclusive [inhibitor, single point]",
COc1ccccc1CCc1nnc(CCC(=O)NC(C)Cn2nc(C)cc2C)o1 (stereo unspecified),,inactive: 4.51%
Cc1cc2ccccc2c(=O)n1CC(=O)NCC(=O)N(C)Cc1ccccc1,,inconclusive: -3.15% [inhibitor]
C=CCn1c(C)cc(-c2csc(NC(=O)C3=COCCO3)n2)c1C,"inconclusive [inhibitor, single point]",
O=S(=O)(c1ccc(Cl)cc1)c1cnc(-c2cccnc2)nc1-c1ccccc1,"inconclusive [inhibitor, single point]",
CN(C)C1=NC[C@H](Cc2ccccc2)N1CCc1ccc(F)cc1,"inconclusive [inhibitor, full curve]",
